In experiment [1] the test system is HSkMC (human skeletal muscle cells). Kind of experiment: cytotoxicity call (relative viability < 0.9). Particulars: 10 µM.
The subject of experiment [2] is HepG2. The experiment is described as follows: cytotoxicity call (relative viability < 0.9). The settings on record: 10 µM.
The subject of experiment [3] is S. aureus RN4220. The experiment is described as follows: growth inhibition call (relative growth <= 0.2). The settings on record: 50 µM.

The structures appear in SMILES notation. This is one part of the list.

In the antibiotic and cytotoxicity screens of Wong et al. (2023) one finds cytotoxicity call and growth inhibition call data, which are given here for 27 compounds.

For the compound `COc1ccc2c3c([nH]c2c1)[C@H](CO)N(Cc1ccc(cc1)Cl)C[C@]13CN(CCc2ccccc2)C1`, the cytotoxicity call in experiment [1] and in experiment [2] was “active” each time. Moreover, the growth inhibition call in experiment [3] is “active”.

In the case of `CC(=O)NCCCC[C@@H]1NC(=O)[C@@H]2C[C@H](C(=O)O)[C@H](c3ccc(O)cc3)N2C1=O`, the cytotoxicity call in experiment [1] and in experiment [2] was “inactive” in each case. For the same compound, the growth inhibition call in experiment [3] is “inactive”.

In the case of `COc1ccc2c3c(n(c2c1)C)[C@@H](CO)N(C[C@]13CN(CC2CCOCC2)C1)C(=O)Cc1ccccn1`, the cytotoxicity call in experiment [1] and in experiment [2] was “inactive” throughout. The growth inhibition call in experiment [3] is “inactive”.

As for `NC1(C(=O)O)CC(C(=O)O)C1` (stereo unspecified), the cytotoxicity call in experiment [1] and in experiment [2] was “inactive” throughout. In addition, the growth inhibition call in experiment [3] was “inactive”.

Take `C[C@@H]1CN([C@@H](C)CO)C(=O)c2cc(NC(=O)C3CC3)ccc2O[C@@H]1CN(C)Cc1ccc(-c2ccccc2)cc1`: the cytotoxicity call in experiment [1] and in experiment [2] was “inactive” each time. The growth inhibition call in experiment [3] is “inactive”.

In the case of `COc1cccc(S(=O)(=O)N(C)C[C@@H]2Oc3cc(C#CCC(C)C)ccc3S(=O)(=O)N([C@H](C)CO)C[C@H]2C)c1`, the cytotoxicity call in experiment [1] and in experiment [2] was “inactive” throughout. Further, the growth inhibition call in experiment [3] was “inactive”.

Consider `C[C@H]1CN([C@@H](C)CO)C(=O)c2cccc(NC(=O)c3cnccn3)c2O[C@H]1CN(C)S(=O)(=O)c1cccs1`, for which the cytotoxicity call in experiment [1] and in experiment [2] was “inactive” each time. In addition, the growth inhibition call in experiment [3] was “inactive”.

On to `O=C1C=CC(O)(CC(=O)OC[C@H]2O[C@@H](OC(=O)CC3(O)C=CC(=O)C=C3)[C@H](O)[C@@H](O)[C@H]2O)C=C1`, for which the cytotoxicity call in experiment [1] and in experiment [2] was “inactive” in each case. For the same compound, the growth inhibition call in experiment [3] is “inactive”.

`Cn1c(N)c(S(=O)(=O)N2CCCC[C@@H]2c2cccnc2)c(=O)n(C)c1=O`: the cytotoxicity call in experiment [1] and in experiment [2] was “inactive” in each case. In addition, the growth inhibition call in experiment [3] is “inactive”.

On to `C[C@@H]1CN([C@H](C)CO)S(=O)(=O)c2ccc(C#Cc3cccc(F)c3)cc2O[C@@H]1CN(C)S(=O)(=O)c1cn(C)cn1`, for which the cytotoxicity call in experiment [1] and in experiment [2] was “inactive” in each case. Moreover, in experiment [3], the growth inhibition call was “inactive”.

As for `CC1(Cn2ccnn2)C(C(=O)O)N2C(=O)CC2S1(=O)=O` (stereo unspecified), the cytotoxicity call in experiment [1] and in experiment [2] was “inactive” throughout. Further, in experiment [3], the growth inhibition call is “active”.

For `O=C(C[C@H]1CC[C@@H]2[C@H](COC[C@@H](O)CN2S(=O)(=O)c2ccc(Cl)cc2)O1)NCc1ccncn1`, the cytotoxicity call in experiment [1] and in experiment [2] was “inactive” each time. Further, the growth inhibition call in experiment [3] was “inactive”.

Turning to `Cc1ccc(S(=O)(=O)N(C)C[C@H]2Oc3ncc(-c4ccncc4)cc3C(=O)N([C@@H](C)CO)C[C@@H]2C)cc1`, the cytotoxicity call in experiment [1] and in experiment [2] was “inactive” throughout. Also, the growth inhibition call in experiment [3] was “inactive”.

On to `C[C@H]1CN([C@@H](C)CO)C(=O)c2c(c3ccccc3n2C)-c2ccccc2CO[C@H]1CN(C)Cc1ccccc1`, for which the cytotoxicity call in experiment [1] and in experiment [2] was “inactive” in each case. The growth inhibition call in experiment [3] is “inactive”.

Regarding `OCCN1CC(O)C(O)C(O)C1CO` (stereo unspecified), the cytotoxicity call in experiment [1] and in experiment [2] was “inactive” throughout. Besides, the growth inhibition call in experiment [3] is “inactive”.

As for `C[C@H]1CN([C@@H](C)CO)C(=O)c2cc(NC(=O)c3ccncc3)ccc2O[C@H]1CN(C)Cc1ccc(Oc2ccccc2)cc1`, the cytotoxicity call in experiment [1] and in experiment [2] was “inactive” each time. For the same compound, in experiment [3], the growth inhibition call was “inactive”.

Take `C[C@@H]1CN([C@H](C)CO)S(=O)(=O)c2ccc(/C=C/c3ccccc3)cc2O[C@@H]1CN(C)C(=O)Nc1cc(F)ccc1F`: the cytotoxicity call in experiment [1] was “inactive”. Further, in experiment [2], the cytotoxicity call was “active”. Further, in experiment [3], the growth inhibition call is “inactive”.

For `CO[C@@H]1CN(C)C(=O)c2cc(NS(=O)(=O)c3cn(C)cn3)ccc2OC[C@@H](C)N(CCC(F)(F)F)C[C@H]1C`, the cytotoxicity call in experiment [1] and in experiment [2] was “inactive” in each case. Further, the growth inhibition call in experiment [3] is “inactive”.

Consider `CO[C@@H]1CN(C)C(=O)c2ccc(NC(=O)Nc3cccc(F)c3)cc2OC[C@@H](C)N(C(=O)Nc2c(C)noc2C)C[C@H]1C`, for which the cytotoxicity call in experiment [1] and in experiment [2] was “inactive” each time. Also, the growth inhibition call in experiment [3] was “inactive”.

Turning to `C[C@H](CO)N1C[C@H](C)[C@@H](CN(C)C(=O)C2CCOCC2)Oc2cc(C3=CCCC3)ccc2S1(=O)=O`, the cytotoxicity call in experiment [1] and in experiment [2] was “inactive” each time. The growth inhibition call in experiment [3] is “inactive”.

As to `C[C@@H]1CN([C@H](C)CO)C(=O)c2cccc(NC(=O)CCCCCC(=O)Nc3ccccc3N)c2O[C@@H]1CN(C)Cc1ccc(-c2ccccc2)cc1`, the cytotoxicity call in experiment [1] is “inactive”. Moreover, the cytotoxicity call in experiment [2] is “active”. Further, in experiment [3], the growth inhibition call is “inactive”.

In the case of `C[C@@H]1CCCCO[C@@H](CN(C)Cc2ccc(C(F)(F)F)cc2)[C@@H](C)CN([C@H](C)CO)C(=O)c2cc(NS(=O)(=O)c3ccccc3)ccc2O1`, the cytotoxicity call in experiment [1] was “inactive”. The cytotoxicity call in experiment [2] was “active”. Besides, the growth inhibition call in experiment [3] was “inactive”.

As for `C[C@@H]1CN([C@H](C)CO)C(=O)c2cccc(NS(=O)(=O)c3ccccc3)c2O[C@H]1CN(C)S(=O)(=O)c1cn(C)cn1`, the cytotoxicity call in experiment [1] and in experiment [2] was “inactive” in each case. Further, the growth inhibition call in experiment [3] was “inactive”.

On to `COc1ccc(cc1)CN1CC[C@]2(CC1)CN([C@@H](CO)c1[nH]c3cc(ccc3c12)OC)C(=O)CN(C)C`, for which the cytotoxicity call in experiment [1] and in experiment [2] was “inactive” throughout. In experiment [3], the growth inhibition call is “inactive”.

In the case of `Cc1ccc(S(=O)(=O)N(C)C[C@@H]2Oc3ccc(NC(=O)Cn4cnnn4)cc3C(=O)N([C@H](C)CO)C[C@@H]2C)cc1`, the cytotoxicity call in experiment [1] and in experiment [2] was “inactive” in each case. Further, the growth inhibition call in experiment [3] was “inactive”.

On to `COCC#Cc1ccc2c(c1)O[C@@H](CN(C)C(=O)Nc1ccc(OC)cc1)[C@@H](C)CN([C@@H](C)CO)S2(=O)=O`, for which the cytotoxicity call in experiment [1] and in experiment [2] was “inactive” each time. Further, the growth inhibition call in experiment [3] was “inactive”.

`COc1ccc(S(=O)(=O)N(C)C[C@@H]2OCCCC[C@@H](C)Oc3ccc(NC(=O)Nc4c(C)noc4C)cc3C(=O)N([C@H](C)CO)C[C@H]2C)cc1`: the cytotoxicity call in experiment [1] and in experiment [2] was “inactive” in each case. Further, the growth inhibition call in experiment [3] is “inactive”.
